# Source: PubChem BioAssay AID485344 (National Center for Advancing Translational Sciences (NCATS), 2010)
# Screen size: about 340,000 compounds; about 6,900 (2%) were called active. No stated cut-off is given here; in the data, active means inhibition above about 30%; inactive means below that, where a call was filed. This is a selection; strong and weak results do not stand in their true shares. The source gives no active or inactive call for entries shown without one.
# Target: D(2) dopamine receptor (Homo sapiens) (UniProt P14416)
# Sequence of UniProt P14416 (P14416 whole entry, looked up): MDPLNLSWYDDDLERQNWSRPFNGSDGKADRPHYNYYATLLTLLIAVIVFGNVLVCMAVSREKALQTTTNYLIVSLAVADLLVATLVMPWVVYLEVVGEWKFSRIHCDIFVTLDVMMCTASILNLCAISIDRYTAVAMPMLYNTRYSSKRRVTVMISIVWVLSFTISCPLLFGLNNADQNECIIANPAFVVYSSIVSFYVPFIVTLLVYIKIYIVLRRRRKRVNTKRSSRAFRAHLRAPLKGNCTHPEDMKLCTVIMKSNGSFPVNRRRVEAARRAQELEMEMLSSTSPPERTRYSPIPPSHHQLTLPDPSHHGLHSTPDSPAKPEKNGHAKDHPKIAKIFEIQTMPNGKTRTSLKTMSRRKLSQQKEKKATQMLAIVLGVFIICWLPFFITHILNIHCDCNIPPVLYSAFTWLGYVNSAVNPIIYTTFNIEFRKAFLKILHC
# Experiment: HTS Assay for Allosteric Antagonists of the Human D2 Dopamine Receptor: Primary Screen for Antagonists; further: 0% is about no effect
# Conditions: HEK293 TREx D2 cells, calcium flux, dopamine EC80; at 10 µM; stronger effect = higher value
# Method in brief: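 Overnight-induced (tetracycline, 30 C) HEK293 T-REx cells carrying force-coupled D2 receive a no-wash calcium dye, then compound, then EC80 dopamine at 180 s; signals are read kinetically throughout.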
row,Compound,inhibition
1,O=C(NCCS(=O)(=O)N1CCN(c2ccccc2F)CC1)C(c1ccccc1)c1ccccc1,0.24%
2,COc1cc(C2C(=O)N(C3CCCCCC3)CC(=O)N2CCC2=CCCCC2)ccc1OC(C)C (configuration not stated),-21%
3,CNCCCC1c2ccccc2C=Cc2ccccc21,active: 74.8%
4,CC(=O)Nc1cccc(NC(=O)CSc2nc(C3CC3)nc3ccccc23)c1,active: 34.2%
5,O=C(CSc1nnc(CNC(=O)c2ccccc2F)n1-c1ccccc1)Nc1ccccc1F,14.1%
6,CCCNC(=O)CCn1nc(-c2ccccc2)c2ccccc2c1=O,-3.78%
7,Cc1ccc(S(=O)(=O)c2cnc(SC(C)C(=O)Nc3ccccc3)[nH]c2=O)cc1 (configuration not stated),-21.8%
8,CCOc1ccc(OCC)c(NC(=O)c2cc(CN3CCOCC3)on2)c1,8.31%
9,CCOc1ccc(-n2ccn3c(CC(C)CC(=O)O)nnc3c2=O)cc1 (configuration not stated),-8.83%
10,COc1ccc2c(c1)c1c(c(=O)n(-c3ccc(C)cc3)c(=O)n1CC(=O)N1CCCC1)n2C,-4.82%
11,CCC(CC)C(=O)Nc1ccc(S(=O)(=O)Nc2nccs2)cc1,active: 32.1%
12,CCC12CN3CC(C)(CN(C1)C3c1ccccc1C)C2=O (configuration not stated),-3.8%
13,Cc1ccccc1-c1nc2cc(NC(=O)c3cccc(OCCC(C)C)c3)ccc2o1,-3.25%
14,CCCCN(Cc1ccccc1)S(=O)(=O)c1cc(Br)cc2c1N(C(=O)C1CC1)CC2,0.254%
15,COc1cc(NC(=O)c2ccc(-c3nc(COc4ccccc4)c(C)o3)cc2)cc(OC)c1,2.27%
16,CNc1c(NC(=O)c2cc(OC)cc(OC)c2)c(=O)oc2ccccc12,24%
17,CSc1nc(Nc2cccc(C)c2)c(C#N)c(-c2ccccc2)n1,4.03%
18,CCOC(=O)c1cnc2ccc(OC)cc2c1NCCc1ccc(OC)c(OC)c1,-12.2%
19,Cn1c(SCC(=O)N2CCCc3ccccc32)ncc(C(=O)Nc2ccc(F)cc2)c1=O,-6.89%
20,CCCCNC(=O)c1nn(-c2ccc(C)cc2)c(=O)c2c1c1ccccc1n2C,-2.28%
21,Cc1cccc(CNC(=O)c2cccc(NC(=O)N3CCSc4ncccc43)c2)c1,-1.62%

row,Compound,inhibition
1,CCN1CCN(c2csc3ccc(C)cc3c2=O)CC1,-16.3%
2,COc1ccc(Br)cc1CNC(=O)CSc1cc(=O)n(C)c2ccccc12,-1.93%
3,Cc1ccccc1-c1noc(-c2cc3ccccc3oc2=O)n1,7.43%
4,Cc1ccc(-n2ncc(C(=O)Nc3ccc4c(c3)OCCO4)c2C2CCN(C(=O)OC(C)(C)C)CC2)cc1,15.9%
5,Cc1ccc(-c2nc(CS(=O)(=O)CC(=O)N3CCN(c4cccc(C)c4C)CC3)c(C)o2)cc1,-10%
6,CCCc1ccc(OC(C)C(=O)Nc2sc3c(c2C(=O)OC)CCCCC3)cc1 (configuration not stated),4.65%
7,CC1CCN(S(=O)(=O)c2ccc3c(c2)oc(=O)n3CC(=O)NC(C)c2ccccc2)CC1 (configuration not stated),-13%
8,COc1ccc(OC)c(-c2csc(NC(=O)Cn3[nH]c(=O)c4ccccc4c3=O)n2)c1,active: 31.9%
9,CCOC(=O)c1c(C)[nH]c(C)c1S(=O)(=O)N1CCCC(C(=O)Nc2ccccc2OCC)C1 (configuration not stated),-1.93%
10,CCc1cccc(CC)c1NC(=O)C(CC)n1nc(C)n2c(cc3cc(C)ccc32)c1=O (configuration not stated),4.68%
11,Cc1ccc2c(c1)C(c1ccccc1)N(C(=O)c1ccccc1F)CC(=O)N2 (configuration not stated),0.537%
12,CCOC(=O)c1cccc(NC(=O)c2cc3cc4ccc(C)cc4nc3o2)c1,13.7%
13,CC(=O)N1CCN(C(=S)c2ccc([N+](=O)[O-])cc2)CC1,active: 48.4%
14,CCCn1c(SCc2nc(-c3cc(OC)ccc3OC)no2)nnc1-c1ccc(Cl)cc1,13.3%
15,Cc1ccccc1CNC(=O)C1CCN(c2nnc(-n3c(C)ccc3C)s2)CC1,3.28%
16,COc1ccc2c(c1)c(=O)c(S(=O)(=O)c1ccc(Cl)cc1)cn2C,10.8%
17,CC(=O)Nc1c(C)nn(-c2ccccc2)c1N1CCC(C(=O)Nc2ccc(F)cc2Cl)CC1,-18.6%
18,Cc1cccc(NC(=O)N2CCC(CN3CCC(C)CC3)CC2)c1C,-23.5%
19,CCN(CC)CCOC(=O)c1ccc(NC(=O)Cn2ncc3c([nH]c4ccc(C)cc43)c2=O)cc1,-5.12%
20,COc1ccccc1-c1nc2c3c(-c4ccccc4)c(-c4ccccc4)oc3ncn2n1,-5.8%
21,COCCn1c(CNC(=O)c2ccc(C)cc2)nc2cccnc21,1.49%

row,Compound,inhibition
1,Cc1ccccc1CS(=O)(=O)CC1Nc2ccc(C(=O)NCc3ccc(Cl)cc3)cc2NC1=O (configuration not stated),6.71%
2,CCOc1ccc(-c2nonc2NC(=O)c2oc3c(C)c(C)ccc3c2C)cc1OCC,-24.7%
3,O=C(Nc1cccc(C(=O)OCc2cc(=O)n3nc(C4CC4)sc3n2)c1)c1ccccc1,5.99%
4,Cc1cc(C)cc(OC(C)C(=O)Nc2nonc2-c2ccc(Br)cc2)c1 (configuration not stated),4.86%
5,Cc1ccccc1NC(=O)CSc1nnc(C)c(=O)[nH]1,14.3%
6,O=C(NCc1ccco1)C1CCN(C(=O)N2CCOc3ccccc32)CC1,-12.3%
7,CCOc1cccc(CNC(=O)c2ccc(N3CCCC3)c(NC(=O)NCc3ccc(F)cc3)c2)c1,-10.7%
8,Cc1ccc(Cl)cc1N(C)C(=O)Cn1nc(Cc2cccnc2)c2ccccc2c1=O,6%
9,Nc1c(-c2nc(-c3cccs3)no2)nnn1-c1ccccc1Cl,13.4%
10,Cc1nnc(SCc2ccccc2)c2cc3sccc3n12,-5.09%
11,CCOc1cc(C(=O)N2CC(=O)Nc3ccc(C)cc3C2c2ccccc2)cc(OCC)c1OCC (configuration not stated),4.42%
12,CCOC(=O)c1ccccc1NC(=O)C1CC(=O)N(C2CCCCC2)C1 (configuration not stated),active: 41.4%
13,Cc1cc(Oc2ccc(C#N)cc2)nc(NCc2ccccc2)n1,active: 42.4%
14,CCc1ccc(CN(Cc2ccco2)C(=O)c2ccc(OC)cc2)cc1,7.91%
15,COc1ccc(N2CCN(c3oc(/C=C/c4ccc(F)cc4)nc3C#N)CC2)cc1,25%
16,COCCCNC(=O)CSC1=Nc2ccccc2C2=NC(CCC(=O)NCc3ccccc3OC)C(=O)N12 (configuration not stated),-11.7%
17,O=S(=O)(Nc1cccc(-c2ccc(N3CCCC3)nn2)c1)c1ccccc1C(F)(F)F,-6.51%
18,COc1ccccc1CNC(=O)c1ccc2c(c1)N(Cc1cccc(C)c1)C(=O)c1ccccc1S2(=O)=O,-1.41%
19,COc1ccc(NC(=O)Cn2nnc3sc4c(c3c2=O)CCC(C)C4)c(OC)c1 (configuration not stated),-1.61%
20,COc1ccc(Cl)cc1NC(=O)c1sc(-n2nc(C)c(Cc3ccccc3)c2C)nc1C,2.05%
